Laboratory results reported in PubChem BioAssay AID485364 (National Center for Advancing Translational Sciences (NCATS), 2010).
“And” between values parts separate entries of the source, which are not always exact repeats. Identical values can stand only once. Hit rate of the full screen: of about 360,000 compounds, about 11,000 (3.1%) were called active. The shares of active, inactive and inconclusive entries below differ from those in the screen. The call rests on the fitted dose curve; in most records, active means well fitted inhibition curve with a large enough effect; inconclusive means small, poorly fitted or top-dose-only effect; inactive means no such curve, though single readings can be large or run the other way. No potency is given beside an inconclusive call; the fits are too rough.

The molecules below were run against Schistosoma mansoni thioredoxin glutathione reductase (TGR) (UniProt Q962Y6) (assay: qHTS Assay for the Inhibitors of Schistosoma Mansoni Peroxiredoxins). Settings: purified TGR, DTNB reduction, TNB absorbance 405 nm; series mostly up to 114 µM.
Method in brief: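 Kinetic colorimetric format: TGR-catalysed, NADPH-driven DTNB reduction monitored via TNB absorbance. Enzyme dispensed at 20 nM; compound exposure 15 min at room temperature before reaction start.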
Further: nearly all actives have a fitted effect of over 60% in size.
Potency means the concentration at half of the fitted maximal effect; tags describe the fitted curve by direction and shape.

SMILES	Potency
CN(C)c1nc(F)c(F)c(S(=O)(=O)c2ccccc2)c1F	active: 39.8 µM
O=C(CSc1ccc2nc(-c3ccccc3)cn2n1)NCC1CCCO1 (stereo not given)	inactive
O=C(c1ccc(COc2ccccc2Br)o1)N1CCCCCC1	inconclusive [inhibitor, partial curve]
O=C1CC(N2CCN(S(=O)(=O)c3ccccc3)CC2)C(=O)N1c1ccccc1 (stereo not given)	active: 50.1 µM
CCC(=O)Nc1cccc(-c2nc3ncccc3o2)c1C	inconclusive [inhibitor, single point]
CS(=O)(=O)N(Cc1ccc(Cl)cc1)c1ccc(C(=O)NCCSCc2ccco2)cc1	inconclusive [inhibitor, partial curve]
Cc1ccc(SCC(=O)OCC(=O)N2CCN(C(=O)c3ccco3)CC2)c(C)c1	active: 44.7 µM
Cc1oc(-c2ccccc2)nc1C(=O)OCC(=O)NC(=O)NCC(C)C	inconclusive [inhibitor, full curve, poor fit]
CCC(C)Sc1ccc([C@H]2N[C@@](Cc3ccccc3)(C(=O)OC)[C@H]3C(=O)N(CC)C(=O)[C@@H]23)cc1OC (stereo not given in full)	inactive
Cc1cc(C)c(N)c(C(=O)O)c1	inactive
Cc1ccc(/C=C/C(=O)Nc2nnc(C)s2)o1	inconclusive [inhibitor, single point]
CC(CC1C(C#N)=C(N)OC2=C1C(=O)CCC2)c1ccccc1 (stereo not given)	active: 1.26 µM
CCO[C@@H]1OC(C(=O)N2CCN(Cc3ccccc3)CC2)=C[C@H](c2ccc(Br)cc2)[C@H]1CCCO	inconclusive [inhibitor, partial curve]
CCOC(=O)C(=O)C1=C(N2CCOCC2)/C(=C\c2cccc([N+](=O)[O-])c2)CC1	active: 39.8 µM
CCC1C(C#N)=C(SC)NC2=C1C(=O)CC(C)(C)C2 (stereo not given)	inconclusive [inhibitor, partial curve]
Cc1cc(C)cc(-n2ncc3c2CCCC3NC(=O)C2(C(N)=O)CC2)c1 (stereo not given)	inactive
Cc1ccnc(NC(=O)c2c(-c3ccccc3Cl)noc2C)c1	inactive
Cc1cc(C(=O)COc2ccc(C#N)cc2)c(C)n1C1CC1	inactive
CCc1cc(C(=O)N2CCCC(CNC(=O)c3ccc(-c4ccccc4)cc3)C2)no1 (stereo not given)	inactive
O=C(NCC1CCCO1)c1cccc(C(=O)NCC2CCCO2)c1 (stereo not given)	inconclusive [inhibitor, partial curve, poor fit]
Cc1ccc(-c2nnc(SCC(=O)N3CCCc4ccccc43)n2N)cc1	inconclusive [inhibitor, full curve]
CCN(CC)CCNC(=O)C1CCCN(c2nnc(C)c3c(C)n(-c4ccc(Cl)cc4)nc23)C1 (stereo not given)	inactive
COc1ccccc1C1C([N+](=O)[O-])=C(N)Oc2c1c(=O)oc1ccccc21 (stereo not given)	inconclusive [inhibitor, partial curve]

SMILES	Potency
O=C(NC(=S)N1CCc2ccccc21)C1CCC1	inconclusive [inhibitor, partial curve]
CCN1CCN(Cc2nc3ccc([N+](=O)[O-])cc3c(=O)n2-c2ccc(OC)cc2OC)CC1	inconclusive [inhibitor, partial curve]
COc1cc(O)c(C(CCN2CCCC(C)C2)c2cc(OC)c(OC)c(OC)c2)c(OC)c1 (stereo not given)	inactive
O=C(Nc1ccc(S(=O)(=O)Nc2ncccn2)cc1)C1=NN(c2ccccc2)C(=O)CC1	inconclusive [inhibitor, partial curve]
Cc1cc(C(=O)COc2ccccc2[N+](=O)[O-])c(C)n1C1CC1	inconclusive [inhibitor, partial curve]
COC/C=C/C1=CC2=CC(=O)C(C)(OC(=O)c3cnc4ccccc4n3)C(=O)C2=CN1C(CO)CO (stereo not given)	inconclusive [inhibitor, partial curve]
COc1ccc(CN2CCNC(=O)C2CC(=O)NCc2cnn(C)c2)cc1OC (stereo not given)	inconclusive [inhibitor, partial curve]
Cc1ccccc1-c1nc(CS(=O)CC(=O)NCCc2ccc(Cl)cc2)c(C)o1 (stereo not given)	active: 39.8 µM and active: 28.2 µM
c1ccc(C2C3=C(CCCC3)Nc3ncnn32)cc1 (stereo not given)	inconclusive [inhibitor, partial curve]
COc1cccc(CN2CCNC(=O)C2CC(=O)NC2CCCC2)c1OC (stereo not given)	inconclusive [inhibitor, partial curve]
C#Cc1ccc([C@@H]2C=C(C(=O)N3CCN(Cc4ccc5c(c4)OCO5)CC3)O[C@H](OCCCCO)C2)cc1	inconclusive [inhibitor, partial curve]
Cc1ccc(NC(=O)c2sc3nc(CCl)[nH]c(=O)c3c2C)c(C)c1	active: 20 µM
O=c1[nH]c(=S)n(C2CC2)c(O)c1/C=N/Nc1cccc2ccccc12	active: 35.5 µM
COc1cc(-c2nc3ccccn3c2/N=C/c2cc(OC)c(O)cc2Cl)ccc1O	active: 25.1 µM
Cc1[nH]c(-c2ccc3c(c2)OCO3)nc1C(=O)O	inactive
CC(C)N1CSC(=S)N(Cc2ccccc2)C1	active: 28.2 µM
Cn1c(C(=O)N2CCC(C(=O)N3CCN(Cc4ccc5c(c4)OCO5)CC3)CC2)cc2sccc21	inactive
O=C(COC(=O)c1ccc(S(=O)(=O)NCc2ccco2)cc1)Nc1ccccc1	inconclusive [inhibitor, partial curve]
COC(=O)c1ccc(COc2ccccc2/C=N/Nc2cccc(C(=O)O)c2)cc1	inconclusive [inhibitor, partial curve]
Cc1ccc(C(=O)Nc2ccc(C(=O)N/N=C/c3ccccn3)cc2)cc1	inactive
Brc1ccc(C2=Nc3cccc4cccc(c34)N2)o1	inconclusive [inhibitor, partial curve, poor fit]
O=C1CC(NCc2ccc3c(c2)OCO3)C(=O)N1Cc1ccc2c(c1)OCO2 (stereo not given)	inconclusive [inhibitor, partial curve]
